45 molecules from the supplement of paper PMC4723716 can be followed below.

± gives the uncertainty stated by the source. The full ranking holds about 9,900 compounds; the median of “viability index relative to DMSO control” is about 1, and the lowest 2% start at about 0.85. The list shows a part of the results.

In the assay the test system is Plasmodium falciparum NF54 stage V gametocytes. The experiment in a line: viability index relative to DMSO control (fraction); higher = less gametocyte killing. The conditions noted are these: 2.5 µM, library set: Broad Institute DOS, incubation time: 72 h. Summed up: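 Compound at 2.5 µM was incubated for 72 hr at 37°C under low oxygen with P. falciparum NF54 stage V gametocytes (0.75% gametocytemia, 1.25% hematocrit, 10 µl, serum-free screening medium) in 1,536-well plates. Staining used 3 µl of 2.5 µM MitoTracker Red CMXRos plus 0.13% saponin for one to two hours, and red particles of 20–70 µm2 were counted in one imaged field per well. Each viability index is that count relative to the plate mean of solvent-only wells.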
As for `CCC(=O)N1C[C@]2(CN(Cc3ccc(F)cc3)C2)c2c([C@H]1CO)n(C)c1cc(OC)ccc21`, the viability index came to 1.01 ± 0.043.

Molecule `C/C=C/c1ccc([C@@H]2[C@H]3CNC[C@@H]2N3C(=O)NCCC)cc1` had a viability index of 1 ± 0.068.

`COc1ccc2c3c([C@H](CO)N(C[C@]33CCN(CC3)S(C)(=O)=O)C(=O)CN(C)C)n(C)c2c1` registered a viability index of 0.986 ± 0.08.

As for `C[C@@H]1CCCCO[C@@H](CN(C)C(=O)NC2CCCCC2)[C@H](C)CN([C@H](C)CO)C(=O)c2cc(N(C)C)ccc2O1`, the viability index amounted to 1.082 ± 0.0051.

For `CCS(=O)(=O)N1CC[C@@]2(CC1)CN[C@H](CO)c1c2c2ccc(OC)cc2n1C`, the viability index turned out to be 1.055 ± 0.0077.

In turn, `COc1ccc(S(=O)(=O)Nc2ccc3c(c2)OC[C@H](C)NC[C@@H](C)[C@H](OC)CN(C)C3=O)cc1` displayed a viability index of 1.07 ± 0.017.

`N#C[C@H]1[C@@H](c2ccc(C3=CCCCC3)cc2)[C@H](CO)N1S(=O)(=O)c1ccccc1` had a viability index of 1.094 ± 0.0056.

For `COc1ccccc1-c1cn(CC[C@H]2CC[C@H](NC(=O)C3CCCCC3)[C@H](CO)O2)nn1`, the viability index amounted to 0.942 ± 0.028.

In turn, `CO[C@H]1CC[C@@H]2CCN(C)C(=O)CC3(CCCCC3)CN(C)C(=O)c3cc(C#N)ccc3OC[C@@H]1O2` returned a viability index of 1.01 ± 0.031.

On to `C[C@@H]1CN([C@@H](C)CO)C(=O)CCCn2nncc2CO[C@H]1CN(C)C(=O)c1cc(-c2ccccc2)on1`, for which the viability index was 1.06 ± 0.026.

As to `C/C=C/c1cccc(-c2nc(C(=O)NCCN3CCCCC3)cc3c2[C@@H](CCO)N([S@](=O)C(C)(C)C)C3)c1`, the viability index came out at 1.03 ± 0.015.

`COc1ccc([C@H]2C/C=C/C[C@H](C)Oc3ccccc3C(=O)N(C)[C@@H](C(C)C)C(=O)N2)c(OC)c1.COc1ccc([C@H]2C/C=C\C[C@H](C)Oc3ccccc3C(=O)N(C)[C@@H](C(C)C)C(=O)N2)c(OC)c1` returned a viability index of 0.9687 ± 0.0033.

In turn, `C[C@H]1CCCCO[C@@H](CN(C)C(=O)Nc2ccccc2)[C@@H](C)CN([C@@H](C)CO)C(=O)c2cc(NC(=O)Nc3ccccc3)ccc2O1` registered a viability index of 0.963 ± 0.11.

Regarding `CNC[C@@H]1Oc2c(NS(=O)(=O)c3ccc(Cl)cc3)cccc2C(=O)N([C@@H](C)CO)C[C@@H]1C`, the viability index came out at 0.961 ± 0.026.

In turn, `C[C@@H]1C/C=C/C[C@@H](c2cccc(Cl)c2)NC(=O)[C@@H](Cc2ccccc2)N(C)C(=O)c2ccccc2O1.C[C@@H]1C/C=C\C[C@@H](c2cccc(Cl)c2)NC(=O)[C@@H](Cc2ccccc2)N(C)C(=O)c2ccccc2O1` registered a viability index of 0.812 ± 0.044.

In turn, `COc1cccc(S(=O)(=O)N2C[C@H](O)COC[C@H]3O[C@@H](CC(=O)N4CCN(c5ccccc5)CC4)CC[C@@H]32)c1` gave a viability index of 1.019 ± 0.0078.

Turning to `COc1ccccc1-c1cn(CC[C@@H]2CC[C@H](NC(=O)C3CCCCC3)[C@@H](CO)O2)nn1`, the viability index was found to be 1 ± 0.058.

Molecule `CO[C@@H]1CN(C)C(=O)c2ccc(NS(=O)(=O)CC(F)(F)F)cc2OC[C@@H](C)N(Cc2nccs2)C[C@H]1C` came in with a viability index of 1.05 ± 0.025.

Take `CO[C@@H]1CN(C)C(=O)c2cc(NC(=O)c3ccc(Oc4ccccc4)cc3)ccc2OC[C@@H](C)NC[C@@H]1C`: the viability index came out at 1.032 ± 0.0066.

For the molecule `O=C(NC[C@@H]1N[C@@H](CO)[C@@H]1c1ccccc1)c1ccccc1F`, the viability index worked out at 1.09 ± 0.033.

The molecule `CCC(=O)N1[C@@H](CO)[C@@H](c2ccccc2)C12CN(C(=O)c1ccc3c(c1)OCO3)C2` had a viability index of 1.07 ± 0.058.

On to `CCCC(=O)N1C[C@]2(CN(Cc3nccs3)C2)c2c([nH]c3cc(OC)ccc23)[C@H]1CO`, for which the viability index worked out at 0.973 ± 0.015.

With `CC(C)(O)C#Cc1cccc(-c2nc(C(=O)O)cc3c2[C@@H](CCO)N(S(=O)C(C)(C)C)C3)c1` (stereo not given in full), the viability index was determined as 1.03 ± 0.061.

Consider `C[C@H](NC(=O)C[C@@H]1CC[C@H]2[C@H](COc3ccc(NS(=O)(=O)c4ccc(Cl)cc4)cc3C(=O)N2C)O1)c1ccccc1`, for which the viability index amounted to 0.927 ± 0.057.

`O=C1NCCOCc2cnnn2CC[C@H]1Cc1ccc(F)cc1` had a viability index of 1 ± 0.2.

Turning to `CN1c2ccc(-c3ccccc3)cc2[C@@H]2[C@@H](CCN2C(=O)NC2CCCCC2)[C@@H]1CO`, the viability index came out at 0.898 ± 0.14.

Consider `COc1ccc2c3c([C@H](CO)N(C)C[C@]33CCN(CC3)S(=O)(=O)c3cccc(F)c3)n(C)c2c1`, for which the viability index came out at 0.965 ± 0.025.

`CCc1csc(N2[C@H](C#N)[C@H](c3ccccc3-c3ccc(F)cc3)[C@H]2CO)n1`: the viability index was 1.1 ± 0.056.

`CO[C@H]1CC[C@@H]2CCN(C)C(=O)[C@H](C)N(C)C(=O)c3cccc(C#N)c3OC[C@@H]1O2` displayed a viability index of 1.12 ± 0.12.

For `O=C(Nc1ccc(F)cc1)N1CC(=O)N2[C@H](CO)[C@@H](c3ccc(C#Cc4cccnc4)cc3)[C@@H]2C1`, the viability index came to 1.1 ± 0.022.

Molecule `C[C@H]1CN([C@@H](C)CO)C(=O)CCCn2nncc2CO[C@@H]1CN(C)C(=O)Nc1ccnc(N2CCOCC2)c1` came in with a viability index of 0.962 ± 0.085.

`CC(C)NC(=O)Nc1cccc2c1O[C@H](CN(C)C(=O)Nc1ccccc1)[C@H](C)CN([C@H](C)CO)C2=O`: the viability index turned out to be 1.03 ± 0.09.

On to `Cn1cnc(S(=O)(=O)N[C@@H]2CC[C@H](CC(=O)NCC3CCCCC3)O[C@@H]2CO)c1`, for which the viability index worked out at 1.05 ± 0.043.

In turn, `O=C(C[C@H]1C=C[C@@H](NC(=O)c2cnccn2)[C@H](CO)O1)NCc1ccccc1F` had a viability index of 1.03 ± 0.12.

Molecule `NCC[C@@H]1CC[C@@H](NC(=O)Cc2ccncc2)[C@H](CO)O1` yielded a viability index of 1.1 ± 0.069.

In turn, `CC(C)NC(=O)N[C@H]1CC[C@H](CC(=O)NCCCN(C)C)O[C@H]1CO` yielded a viability index of 1.006 ± 0.0083.

Turning to `C[C@@H](NC(=O)C[C@H]1CC[C@H]2[C@@H](COC[C@@H](O)CN2Cc2ccc(C(F)(F)F)cc2)O1)c1ccccc1`, the viability index was 1.04 ± 0.11.

`CC(C)CN(C[C@H]1N[C@H](CO)[C@@H]1c1ccccc1)C(=O)C1CCCCC1` came in with a viability index of 1.03 ± 0.051.

As to `CO[C@H](CN(C)C(=O)c1ccccc1F)[C@H](C)CN([C@H](C)CO)S(=O)(=O)c1ccc(F)cc1`, the viability index stood at 1.13 ± 0.035.

Consider `O=C(C[C@@H]1CC[C@H]2[C@@H](COC[C@@H](O)CN2Cc2cc(F)ccc2F)O1)NCc1ccc(Oc2ccccc2)cc1`, for which the viability index was determined as 0.949 ± 0.0061.

Consider `C/C=C/c1ccc([C@H]2[C@@H](CO)N(C(C)=O)[C@@H]2CN(CC)C(=O)CN(C)C)cc1`, for which the viability index is 1 ± 0.012.

`O=C(C1CCC1)N1CC(=O)N2[C@@H](CO)[C@@H](c3ccc(Br)cc3)[C@@H]2C1` registered a viability index of 1.017 ± 0.0031.

Consider `CN(C[C@@H]1N[C@H](CO)[C@@H]1c1ccc(C#CCC2CCCC2)cc1)S(C)(=O)=O`, for which the viability index amounted to 1.03 ± 0.03.

As to `C[C@H](CO)N1C[C@H](C)[C@H](CN(C)S(C)(=O)=O)Oc2ccc(NC(=O)NC3CCCCC3)cc2C1=O`, the viability index was determined as 0.979 ± 0.024.

Molecule `OC[C@@H]1[C@@H](c2ccc(-c3cccc(F)c3)cc2)[C@H]2CN(Cc3cncnc3)CCCCN12` had a viability index of 1.01 ± 0.03.
